# Laboratory results: PubChem BioAssay AID588342 (National Center for Advancing Translational Sciences (NCATS), 2011)
# The whole screen tested about 360,000 compounds, of which about 25,000 (6.9%) were called active. Inconclusive results, whose numbers are uncertain, are shown with a selection of clear calls. The call rests on the fitted dose curve; in most records, active means well fitted inhibition curve with a large enough effect; inconclusive means small, poorly fitted or top-dose-only effect; inactive means flat fitted curve, though single readings scatter. A potency beside an inconclusive call is a rough fit, not a confirmed value.
# Target: Luciferin 4-monooxygenase (Photinus pyralis) (UniProt P08659)
# Test: qHTS profiling assay for firefly luciferase inhibitor/activator using purifed enzyme and Km concentrations of substrates (counterscreen for miR-21 project); further: nearly all actives have a fitted effect of over 55% in size
# Conditions: purified FLuc, luminescence inhibition; series mostly up to 57.5 µM
# Procedure, shortened: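 Purified P. pyralis luciferase, 10 nM final, with Km-level 10 uM D-luciferin and 10 uM ATP in 50 mM Tris acetate pH 7.5, 10 mM Mg acetate, 0.01% Tween-20, 0.05% BSA; 6-point qHTS titration about 60 µM downward; luminescence read.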
# Potency means the concentration at half of the fitted maximal effect; tags describe the fitted curve by direction and shape.
# UniProt P08659, sequence (P08659 whole entry, looked up): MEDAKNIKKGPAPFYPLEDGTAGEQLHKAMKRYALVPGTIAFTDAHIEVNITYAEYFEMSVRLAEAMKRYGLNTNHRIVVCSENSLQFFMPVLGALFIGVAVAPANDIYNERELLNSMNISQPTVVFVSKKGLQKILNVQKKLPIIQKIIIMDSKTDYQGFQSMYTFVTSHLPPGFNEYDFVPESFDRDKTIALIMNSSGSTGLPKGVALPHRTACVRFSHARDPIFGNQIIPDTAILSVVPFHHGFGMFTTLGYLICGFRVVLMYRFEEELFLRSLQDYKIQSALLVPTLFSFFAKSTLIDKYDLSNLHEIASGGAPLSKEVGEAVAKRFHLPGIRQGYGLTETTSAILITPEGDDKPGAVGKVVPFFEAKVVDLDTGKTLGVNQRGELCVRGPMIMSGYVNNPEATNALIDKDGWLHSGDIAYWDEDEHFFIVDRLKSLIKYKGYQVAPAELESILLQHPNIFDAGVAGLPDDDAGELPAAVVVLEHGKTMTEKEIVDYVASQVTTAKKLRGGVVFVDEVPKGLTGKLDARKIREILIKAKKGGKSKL
row,Compound,Potency
1,CCOC(=O)/C(C#N)=C(C)/C=C1\Sc2ccccc2N1CC,"inconclusive: 4.26 µM [inhibitor, full curve]"
2,COC(=O)c1ccc(OCC2c3cc(OC)c(OC)cc3CCN2C(=O)c2cccc(C)c2)cc1 (configuration not stated),inactive
3,Oc1cccc(C(O)CNCc2ccc(OCc3ccc(Cl)cc3Cl)cc2)c1 (configuration not stated),inactive
4,CCn1nnc2cc(C(=O)Nc3cc(OC)cc(OC)c3)ccc21,active: 16.9 µM
5,CSc1ccc(-c2nnn(Cc3ccc(Br)cc3)n2)cc1,"inconclusive: 15.1 µM [inhibitor, partial curve]"
6,CCOc1c(OC)ccc2c3c(c(=O)oc12)CCCC3,"inconclusive: 37.9 µM [inhibitor, partial curve, poor fit]"
7,Cc1ccc(C(=O)CCC(=O)Nc2ncccc2C)cc1,"inconclusive: 19 µM [inhibitor, partial curve, poor fit]"
8,CCOC(=O)c1cc(C(=O)Nc2ccc(C)c(F)c2)nn1C,active: 7.57 µM
9,COc1cc2nc(-c3ccccc3C)oc(=O)c2cc1OC,"inconclusive: 33.8 µM [inhibitor, partial curve, poor fit]"
10,CCn1nnnc1SCC(=O)c1ccc(NC(C)=O)cc1,inactive
11,Cc1cc(C(=O)COC(=O)c2ccc(O)cc2O)c(C)n1C(C)C,active: 4.78 µM
12,COc1cccc(NC(=O)COc2ccc3c(c2)CCC3)c1,active: 15.1 µM
13,COc1ccc(N2CC(C(=O)N[C@H](C(=O)NC3CCCCC3)C(C)C)CC2=O)cc1 (some centres not stated),inactive
14,CCOC(=O)c1cccc(NS(=O)(=O)c2cc(Br)cc3c2N(C(=O)C2CC2)CC3)c1,"inconclusive: 30.1 µM [inhibitor, partial curve, poor fit]"
15,Cc1ccc(-n2cc3c(=O)n(C)c(=O)n(C)c3c2)cc1C,"inconclusive: 23.9 µM [inhibitor, partial curve]"
16,CCOc1cc(/C=C/C(=O)O)ccc1OCCOc1ccc(F)cc1,"inconclusive: 37.9 µM [inhibitor, partial curve, poor fit]"
17,Cc1onc(NC(=O)NC(=O)c2ccccc2F)c1Br,"inconclusive: 30.1 µM [inhibitor, partial curve, poor fit]"
18,Cc1noc(NS(=O)(=O)c2ccc(N3Cc4ccccc4C3=O)cc2)c1C,"inconclusive: 23.9 µM [inhibitor, single point]"
19,CCOC(=O)c1ccc(NC(=S)Nc2cccc(N)n2)cc1,"inconclusive: 13.5 µM [inhibitor, partial curve]"
20,CC(=O)c1cccc(NC(=O)C(=O)Nc2cccc3ccccc23)c1,"inconclusive: 3.79 µM [inhibitor, partial curve, poor fit]"
21,CCN1CCN(Cc2ccc(NC(=O)c3cc(NC(=O)c4cncc(-c5cccs5)c4)cc(OC)c3)cc2C(F)(F)F)CC1,"inconclusive: 30.1 µM [inhibitor, single point]"
22,Cc1ccc(-n2ncc3c(NC4CCCCC4)ncnc32)cc1C,active: 0.601 µM
23,Brc1ccc(C2Nc3cccc4cccc(c34)N2)o1,"inconclusive: 21.3 µM [inhibitor, single point]"
24,Cc1cccc(NC(=O)c2onc3c2CCCC3)c1C,active: 7.57 µM

row,Compound,Potency
1,Cc1nc2ccccc2cc1C(=O)N/N=C/c1ccccc1[N+](=O)[O-],"inconclusive: 21.3 µM [inhibitor, partial curve, poor fit]"
2,CCSc1nnc(-c2ccccc2N=Cc2c(C)[nH]n(-c3ccccc3)c2=O)c(=O)[nH]1,"inconclusive: 23.9 µM [inhibitor, partial curve, poor fit]"
3,Cc1ccc(C)c(NC(=O)c2ccc(N(C)S(C)(=O)=O)cc2)c1,"inconclusive: 37.9 µM [inhibitor, partial curve, poor fit]"
4,C/C(=N\NC(=O)c1ccc(Cl)cc1)c1ccc(Br)s1,"inconclusive: 23.9 µM [inhibitor, partial curve, poor fit]"
5,Oc1ccc(/C=N/Nc2ccc(C(F)(F)F)cn2)cc1O,"inconclusive: 26.9 µM [inhibitor, single point]"
6,CCN(CC)c1ccc(/C=N/Nc2cccc(C)c2)c(O)c1,"inconclusive: 37.9 µM [inhibitor, partial curve, poor fit]"
7,COc1cccc(N/C=C/C(=O)c2ccc(OC)c(OC)c2)c1,active: 1.35 µM
8,COc1ccc(C(=O)N2CCC(n3nccc3NC(=O)C3CCOC3)CC2)cc1 (configuration not stated),inactive
9,Cc1c(C(=O)NCCC2=CCCCC2)oc2ccc(S(=O)(=O)N3CCOCC3)cc12,"inconclusive: 23.9 µM [inhibitor, partial curve, poor fit]"
10,COc1cc(C(=O)N(C)CCOc2ccc(C)cc2)ccc1OC1CCN(C(C)=O)CC1,inactive
11,CCN(CC)S(=O)(=O)c1cccc(-c2n[nH]c(=S)n2Cc2ccccc2)c1,"inconclusive: 37.9 µM [inhibitor, partial curve, poor fit]"
12,C/C(=C\C(=O)c1ccc(C)o1)Nc1ccc2c(c1)OCO2,active: 4.78 µM
13,CCCSc1ccc2nc(-c3ccccc3)cn2c1,active: 0.0849 µM
14,COc1ccc(OCC(=O)N2CCN(C(=O)c3ccc(OC)c(OC)c3)CC2)cc1,"inconclusive: 26.9 µM [inhibitor, partial curve]"
15,Cc1cc(Cl)ccc1OCC(=O)NCc1ccncc1,inactive
16,Cc1nc2c(C)cccc2cc1C(=O)N/N=C/c1cccnc1,"inconclusive: 37.9 µM [inhibitor, partial curve, poor fit]"
17,CCOc1cc(/C=N/Nc2nn3cnnc3c3ccccc23)ccc1O,active: 5.36 µM
18,CCSCc1nnc(SCC(=O)Nc2ccc(OC)cc2)n1C,inactive
19,CC(=O)c1ccc(NC(=O)c2cc(C)nc3ccccc23)cc1,"inconclusive: 37.9 µM [inhibitor, single point]"
20,COc1ccc(COC(=O)N/C=C/c2ccco2)cc1,"inconclusive: 16.9 µM [inhibitor, partial curve, poor fit]"
21,Fc1ccc(Nc2ncnc3ccccc23)cc1,"inconclusive: 37.9 µM [inhibitor, partial curve, poor fit]"
22,O=C(/C=C/c1cn(-c2ccccc2)nc1-c1cccnc1)N1CCCC1,"inconclusive: 26.9 µM [inhibitor, partial curve, poor fit]"
23,On1c(-c2ccccc2)nc2ccccc21,"inconclusive: 37.9 µM [inhibitor, partial curve, poor fit]"
24,CCCN(C(=O)c1ccc2c(=O)n3c(nc2c1)CCCCC3)c1cccc(Cl)c1,"inconclusive: 15.1 µM [inhibitor, partial curve, poor fit]"

row,Compound,Potency
1,Cc1nc2ccn(Cc3ccccc3)c(=O)c2cc1C(=O)N1CCN(c2ccccc2)CC1,inactive
2,COc1ccc(-c2nc3ccccc3o2)cc1NC(=O)c1cc(Br)ccc1OC,inactive
3,CC(C(=O)O)c1ccc2c(c1)[nH]c1ccc(Cl)cc12 (configuration not stated),"inconclusive: 33.8 µM [inhibitor, single point]"
4,CC(c1ccccc1)c1nnc(NC(=O)Nc2ccccc2F)s1 (configuration not stated),"inconclusive: 6.75 µM [inhibitor, partial curve, poor fit]"
5,O=[N+]([O-])c1ccc(/C=N/Nc2ccccn2)cc1,inactive
6,O=S1(=O)CCC(NC(=S)N2CCCCC2)C1 (configuration not stated),inactive
7,O=C(O)c1cccc(NC(=O)c2ccc3c(c2)C(=O)N(CC2CCCO2)C3=O)c1 (configuration not stated),active: 0.478 µM
8,Cc1ccnc(NC(=O)CCC2CCCCC2)c1,active: 10.7 µM
9,COc1ccc(C(=O)NCC(c2cccs2)N2CCc3ccccc32)cc1OC (configuration not stated),inactive
10,Cc1c(C(=O)O)oc2c(F)cccc12,inactive
11,S=C(c1ccc(-c2cccc(Cl)c2)o1)N1CCOCC1,active: 5.36 µM
12,CC(=O)c1ccc(NC(=O)c2sc(-n3nc(C)c(Cc4ccc5c(c4)OCO5)c3C)nc2C)cc1,inactive
13,O=C(O)c1ccccc1C(=O)Nc1ccc(-c2csc(-c3ccccc3)n2)cc1,active: 16.9 µM
14,O=C(Nc1cccnc1)c1ccc(N2CCCC2)c([N+](=O)[O-])c1,"inconclusive: 37.9 µM [inhibitor, single point]"
15,O=C(O)c1nc(NCCc2ccccc2)ncc1Cl,inactive
16,O=C(Nc1ccc2oc(-c3ccc(Br)cc3)nc2c1)c1cc2ccccc2o1,"inconclusive: 30.1 µM [inhibitor, single point]"
17,COc1ccc(-c2csc3nc(-c4ccccc4F)oc(=O)c23)cc1,"inconclusive: 10.7 µM [inhibitor, partial curve, poor fit]"
18,Cc1cc(NC(=O)c2cc(-c3cccc(OCC(C)C)c3)nc3ccccc23)no1,"inconclusive: 12 µM [inhibitor, partial curve, poor fit]"
19,COc1ccccc1CCNC(=O)C1(c2cccs2)CCOCC1,inactive
20,COc1ccccc1C(=O)NC(=O)COC(=O)c1cccc(NC(C)=O)c1,"inconclusive: 21.3 µM [inhibitor, single point]"
21,O=C(Nc1cccc(NC(=O)c2ccco2)n1)c1ccco1,"inconclusive: 26.9 µM [inhibitor, single point]"
22,Fc1ccc(Nc2cccc3nccnc23)cc1,"inconclusive: 37.9 µM [inhibitor, single point]"
23,O=C(Oc1cccc(Nc2ncnc3ccccc23)c1)c1cccnc1,"inconclusive: 26.9 µM [inhibitor, single point]"
24,CCS(=O)(=O)c1ccc2oc(Nc3ccc(C(C)C)cc3)nc2c1,"inconclusive: 15.1 µM [inhibitor, partial curve]"
